According to FireProtDB (doi:10.1093/protein/13.10.691):

Conditions: Gallus gallus; pH 2.7; Thermal; DSC; glycine 0.05 M; reversible: yes

Substance: Lysozyme C wild type (no sequence given)
- Tm: 65.6 °C
- heat capacity change of unfolding: 1.58 kcal/mol/K
- unfolding enthalpy (calorimetric): 114 kcal/mol
